Experimental data as given in PubChem BioAssay AID1671188 (National Center for Advancing Translational Sciences (NCATS), 2021).
The whole screen tested about 100,000 compounds, of which about 250 (0.25%) were called active. Inconclusive means that the source gave no clear call. Such entries were picked first, then a sample of the others. Calls come from the whole dose curve; as a rule, active = well fitted inhibition curve with a large enough effect; inconclusive = small, poorly fitted or top-dose-only effect; inactive = flat fitted curve, though single readings scatter. Potencies of inconclusive entries are left out as doubtful fits.

Target: Alanine aminotransferase 2 (Homo sapiens) (UniProt Q8TD30)
UniProt Q8TD30, sequence (Q8TD30 whole entry, looked up): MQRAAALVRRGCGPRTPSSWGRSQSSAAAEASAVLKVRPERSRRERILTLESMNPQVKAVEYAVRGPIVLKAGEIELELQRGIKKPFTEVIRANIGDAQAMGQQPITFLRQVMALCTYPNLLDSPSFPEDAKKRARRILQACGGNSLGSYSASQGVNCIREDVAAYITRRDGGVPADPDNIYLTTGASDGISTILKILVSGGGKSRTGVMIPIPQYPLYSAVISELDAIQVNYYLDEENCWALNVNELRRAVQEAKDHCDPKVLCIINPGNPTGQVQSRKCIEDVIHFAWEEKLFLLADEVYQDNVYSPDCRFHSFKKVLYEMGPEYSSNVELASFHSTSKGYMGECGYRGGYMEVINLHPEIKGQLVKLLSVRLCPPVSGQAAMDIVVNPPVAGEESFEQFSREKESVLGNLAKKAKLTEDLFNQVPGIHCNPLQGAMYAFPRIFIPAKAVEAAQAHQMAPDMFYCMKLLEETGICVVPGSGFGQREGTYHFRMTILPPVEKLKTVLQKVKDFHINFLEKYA
Assay: Primary qHTS assay for inhibitors of Glutamate pyruvate transaminase 2 (GPT2); note: nearly all actives have a fitted effect of over 60% in size
Details: Recombinant GPT2, coupled pyruvate oxidase/HRP Amplex Red fluorescence; series mostly up to 57.7 µM
In short: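 Inhibition is scored from Amplex Red fluorescence generated when pyruvate oxidase and HRP act on pyruvate released by GPT2. Reactions contain 10ng/uL enzyme, 250uM a-KG and 2mM L-alanine and run 30 min at room temperature.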
Potency is the fitted concentration of half-maximal effect; tags give direction and shape of the fitted curve.

SMILES | Potency
O=C(NC1CCN(c2cc(-c3ccc(F)cc3)[nH]n2)C1)c1cccnc1 (centres undefined) | inconclusive [inhibitor, partial curve]
CCn1c(=O)c2ccnn2c2ccc(C(=O)Nc3ccc(C)c(F)c3)cc21 | inactive
O=C(NCC(F)(F)F)C1CCCN1Cc1ccc(-c2cncnc2)cc1 (centres undefined) | inactive
COc1ccc([C@H]2C[C@@H](O)[C@@H](O)[C@@H]2NC(=O)c2c(-c3ccccc3)noc2C)cc1 | inactive
Cc1nn(C)c(C)c1S(=O)(=O)N1CCCC(CO)(Cc2ccccc2)C1 (centres undefined) | inconclusive [inhibitor, single point]
O=C(O)CC1(CC(=O)N[C@@H]2C=C(C(=O)N[C@H]3CCCNC3=O)C[C@@H](O)[C@@H]2O)CCCC1 | inactive
Cc1ncc2n1C(=O)N(C1CCN(Cc3ccccc3F)CC1)C2 | inconclusive [inhibitor, single point]
COc1cc(OC)cc(C(=O)N2CCCN(c3cc(-c4ccc(C)c(C)c4)[nH]n3)CC2)c1 | inconclusive [inhibitor, single point]
O=C(CCC[C@@H]1[C@H]2CCCN3CCC[C@@H](CN1Cc1cccnc1)[C@@H]23)NCc1cccnc1 | inconclusive [inhibitor, single point]
CC(C)(C)C(=O)N1CCCC1C(=O)N1CCC(N2Cc3ccccc3C2=O)CC1 (centres undefined) | inconclusive [inhibitor, single point]
O=C(NCc1ccccn1)c1ccc2oc(-c3cccnc3)nc2c1 | inconclusive [inhibitor, partial curve, poor fit]
O=C(NCc1ccccc1)N1CCC[C@H](n2c(=O)n(CC3CC3)c3cccnc32)C1 | inconclusive [inhibitor, single point]
Nc1cccn2nc(-c3ccccc3)nc12 | inactive
O=c1ncn(CC2CC2)c2ccc(-c3ccc4c(c3)OCO4)nc12 | inactive
CC(=O)c1cccc(NC(=O)CN2C(=O)NC3(CCC(C(C)(C)C)CC3)C2=O)c1 (centres undefined) | inactive
CCOc1ccc(CC(=O)N2CCCN(c3cc(-c4ccccc4)[nH]n3)CC2)cc1OCC | inconclusive [inhibitor, partial curve]
COc1nccc(N2CCC(CC(=O)N3CCN(CCC#N)CC3)CC2)n1 | inconclusive [inhibitor, partial curve, poor fit]
CC(=O)N1CCCN(c2cc(Cl)nc3ccnn23)CC1 | inconclusive [inhibitor, single point]
COc1ccccc1N1CCN(CC[C@@H]2CC[C@H](O)[C@@H](C(=O)NC3CC3)O2)CC1 | inactive
